Measured values as given in a compilation of properties of binary mixtures (doi:10.1016/j.jct.2017.12.009).
Some of these densities may be calculated back from excess volumes.

Experiment: xn = mol fraction of the nth substance listed
Conditions: 101 kPa

CCCC[N+]1(C)CCCC1.O=S(=O)([O-])C(F)(F)F + CO
mass density [kg/m3]
Conditions	278.15 K	288.15 K	298.15 K	308.15 K	318.15 K
x1 = 0.0501	918.3	909.3	900.3	891.4	882.4
x1 = 0.1004	992.5	–	–	966.6	957.9
x1 = 0.1503	1045	–	1028.1	1019.7	1011.3
x1 = 0.2002	–	1075.9	–	1059.4	1051.2
x1 = 0.3002	1138.8	1130.8	1122.8	1114.8	1106.9
x1 = 0.3996	1175.4	1167.5	1159.7	–	1144.2
x1 = 0.4998	1201.5	1193.8	1186.1	1178.5	1170.9
x1 = 0.6006	1221.3	1213.6	1206.1	–	1191
x1 = 0.7015	1236.3	1228.8	1221.4	1213.9	1206.6
x1 = 0.8013	1248.6	1241.2	–	1226.5	–
x1 = 0.8427	1253	1245.6	1238.2	1230.9	1223.6
x1 = 0.9008	1258.5	1251	1243.7	1236.4	1229.2
x1 = 0.9514	–	1255.3	1248	1240.8	1233.6
x1 = 1	1267.1	–	1252.1	1245	1237.8

CO + CCCC[N+]1(C)CCCC1.O=S(=O)([O-])C(F)(F)F
x2 = 0
Conditions	mass density [kg/m3]
278.15 K	805.1
288.15 K	795.7
